91 compounds from PubChem BioAssay AID360 (National Center for Advancing Translational Sciences (NCATS), 2006) can be followed below.

The campaign covered roughly 48,000 compounds. About 550 (1.1%) were called active. Another 4% or so got no clear call; they are omitted. No stated cut-off is given here; in the data, active means potency below about 15 µM; inconclusive means mostly about 16 µM to 33 µM; inactive means weaker than that. Some of the results follow.
Potency means the concentration at half of the fitted maximal effect.

The experiment has as its target Lysosomal acid glucosylceramidase (Homo sapiens) (UniProt P04062). The experiment can be described thus: Glucocerebrosidase.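 Further: the screen sought inhibitors.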 As to conditions: purified enzyme, resorufin glucoside fluorescence (screen aimed at inhibitors), 20 min. A digest of the protocol: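 Normal human glucocerebrosidase (0.2 nM final) was assayed with resorufin β-D-glucopyranoside (30 uM final) in 50mM citric acid/KH2PO4, 10mM sodium taurocholate, 0.01% tween-20, pH 5.9. Compounds were titrated; fluorescence (Ex 548, Em 600) read after 20 min at RT.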
UniProt P04062, sequence (P04062 whole entry, looked up): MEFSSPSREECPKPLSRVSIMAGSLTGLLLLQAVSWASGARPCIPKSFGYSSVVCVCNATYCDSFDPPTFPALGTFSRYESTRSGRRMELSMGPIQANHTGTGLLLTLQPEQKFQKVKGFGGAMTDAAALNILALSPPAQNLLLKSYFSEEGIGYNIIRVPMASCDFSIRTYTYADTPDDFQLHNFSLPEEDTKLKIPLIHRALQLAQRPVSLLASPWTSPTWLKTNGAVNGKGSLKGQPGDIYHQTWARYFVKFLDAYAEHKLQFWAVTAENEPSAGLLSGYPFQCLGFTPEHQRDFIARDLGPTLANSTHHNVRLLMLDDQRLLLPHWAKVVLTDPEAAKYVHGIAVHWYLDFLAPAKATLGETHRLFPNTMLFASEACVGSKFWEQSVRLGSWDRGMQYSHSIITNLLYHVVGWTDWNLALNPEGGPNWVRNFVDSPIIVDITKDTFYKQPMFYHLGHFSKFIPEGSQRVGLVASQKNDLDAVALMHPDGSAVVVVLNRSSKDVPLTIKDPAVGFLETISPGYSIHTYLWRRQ
Take `COc1ccc(C2=NO[C@@H]3C(=O)N(c4cccc(C)c4C)C(=O)[C@H]23)cc1OC`: the Potency is inactive: > 76.9 µM. For `CSc1nc2c(c(=O)[nH]c(=O)n2C)n1C/C=C(\C)Cl` the value was inactive: > 76.9 µM; for `C=CCN=C1CC(C)(C)CC(=O)/C1=C(/O)CCC(=O)OC`, inactive: > 76.9 µM. The figure for `O=C(Nc1cccc(N2CCCC2)c1)c1cccs1` is inactive: > 76.9 µM. For `COC(=O)C1=C(N)n2c(s/c(=C\c3cccnc3)c2=O)=C(C(=O)OC)C1c1cccnc1` (stereo unspecified) the value was inactive: > 76.9 µM; for `C/C=C/Cn1c(SCc2ccccc2)nc2c1c(=O)[nH]c(=O)n2C`, inactive: > 15.4 µM. In the case of `CC1CC(C)CN(S(=O)(=O)c2ccc(C(=O)N3CCN(c4ccccc4)CC3)cc2)C1` (stereo unspecified), the Potency is inactive: > 76.9 µM. As for `CCN(CC)S(=O)(=O)c1ccc2oc(C(=O)NCc3ccc(F)cc3)c(C)c2c1`, the Potency is inactive: > 76.9 µM. For `O=C(C1CCC1)N1CCC(c2nc3c(nnn3Cc3c(F)cccc3Cl)c(=O)[nH]2)CC1` the value was inactive: > 76.9 µM. For `CCC(C)NC(=O)C(NS(=O)(=O)c1cccc2nsnc12)c1ccccc1` (stereo unspecified) the value was inactive: > 76.9 µM. The figure for `CN(C)CC(C)(C)CNC(=O)C1CCN(Cc2ccccc2O)CC1` is inactive: > 76.9 µM; for `CCOC(=O)N1CCN(CC(=O)Nc2cc(OCC)ccc2OCC)CC1` it is inactive: > 76.9 µM; for `COC(=O)c1c(C(C)=O)cnc2ccc(Br)cc12` it is inactive: > 76.9 µM.

Regarding `COc1ccc2nc(SCC(=O)Nc3ccccc3C#N)[nH]c2c1`, the Potency was inactive: > 76.9 µM. The figure for `CS(=O)(=O)N(CC(=O)NCCSCc1c(F)cccc1Cl)c1ccc2c(c1)OCO2` is inactive: > 76.9 µM; for `O=C(CN(CCc1ccccc1)C(=O)CN1C(=O)COc2ccccc21)NCc1ccco1` it is inactive: > 76.9 µM; for `CC12CN(C(=O)c3ccco3)CC(c3ccccc3)(CN(C(=O)c3ccco3)C1)C2=O` it is inactive: > 76.9 µM. Take `COc1cccc(-c2csc(N3CCN(S(=O)(=O)c4ccc(F)cc4)CC3)n2)c1`: the Potency was inactive: > 76.9 µM. On to `COC(=O)c1ccc(CSc2nnc(CNC(=O)COc3ccc(Cl)cc3)o2)o1`, for which the Potency is inactive: > 76.9 µM. Regarding `CS(=O)(=O)N(Cc1cc2ccccc2[nH]c1=O)C1CCCCC1`, the Potency is inactive: > 76.9 µM. Consider `Clc1ccc(CSc2ncccn2)cc1`, for which the Potency is inactive: > 76.9 µM. The figure for `CC(C)COC(=O)n1c(SCC(=O)N(C)C)nc2ccccc21` is inactive: > 76.9 µM; for `Cc1ccc2cccc(S(=O)(=O)N3CCN(c4ccccc4F)CC3)c2n1` it is inactive: > 76.9 µM; for `CCOC(=O)N1CCN(C(=O)C2CCN(S(=O)(=O)CC)CC2)CC1` it is inactive: > 76.9 µM. Turning to `COc1ccc(CN(CC(=O)NCC2CCCO2)C(=O)CCC(=O)Nc2cc(C)on2)cc1` (stereo unspecified), the Potency was inactive: > 76.9 µM. For `c1ccc(-n2c(SCC3CCCCO3)nnc2-c2cnccn2)cc1` (stereo unspecified) the value was inactive: > 76.9 µM. For `Cc1cc(Cl)ccc1OC(C)C(=O)Nc1ccccc1N1CCOCC1` (stereo unspecified) the value was inactive: > 76.9 µM; for `Cn1nccc1/C=C(/C#N)S(=O)(=O)c1ccccc1`, inactive: > 76.9 µM. Turning to `Oc1ccc2[nH]ccc2c1`, the Potency was inactive: > 76.9 µM. As for `CCC(=O)Nc1cc(C)c(NC(=O)C23CC4CC(CC(C4)C2)C3)cn1`, the Potency is inactive: > 76.9 µM. For `CCOC(=O)c1sc(N2C(=O)C(O)=C(C(=O)c3ccco3)C2c2ccccc2)nc1C` (stereo unspecified) the value was inactive: > 76.9 µM. The figure for `O=C(O)COc1ccc(-c2nnn(Cc3ccccc3F)n2)cc1` is inactive: > 76.9 µM. For `O=C(O)c1cccc(CSc2ncccn2)c1`, the Potency was inactive: > 76.9 µM. The figure for `Cc1nc2ccccc2nc1N1CCC(C)CC1` is inactive: > 76.9 µM; for `Cn1c(=O)oc2cc(S(=O)(=O)NCCC(=O)NCCc3ccccc3)ccc21` it is inactive: > 76.9 µM; for `NC(=O)c1ccccc1NC(=O)CS(=O)(=O)Cc1ccccc1` it is inactive: > 76.9 µM. The figure for `c1ccc(-n2ncc3c2ncn2nnnc32)cc1` is inactive: > 76.9 µM. As to `Cc1cc(-c2nnc(-c3ccccc3)c(-c3ccccc3)n2)c(C)o1`, the Potency is inactive: > 76.9 µM. The figure for `Cc1nc2cc(NC(=O)NCc3ccco3)ccc2o1` is inactive: > 76.9 µM; for `CC1(C)CC(=O)C=C(Nc2ccc(F)cc2)C1` it is inactive: > 76.9 µM. For `O=C(Cn1c(NCCO)nc2ccccc21)c1ccc(Cl)cc1` the value was “inactive”. On to `O=C(NCc1ccccn1)c1ccc(NC(=O)c2ccco2)cc1`, for which the Potency is inactive: > 76.9 µM.

For `O=C1C2C3C=CC(C3)C2C(=O)N1c1ccncc1` (stereo unspecified), the Potency is inactive: > 76.9 µM. The figure for `CCOC(=O)c1cn(CC(=O)Nc2ccc3c(c2)OCCO3)nn1` is inactive: > 76.9 µM. For `Cc1cc(C)c2cc(CN(CCO)C(=O)Nc3ccc(F)cc3)c(=O)[nH]c2c1` the value was inactive: > 76.9 µM; for `CCC(CC)C(=O)Nc1cccc(C(=O)Nc2ccc3c(c2)OCO3)c1`, “inactive”; for `CCN1C(=O)C(C)S/C1=N\S(=O)(=O)c1ccc(Cl)s1` (stereo unspecified), inactive: > 76.9 µM. With `COc1cccc(-c2cc(C(=O)N3CCCc4ccccc43)no2)c1`, the Potency was inactive: > 76.9 µM. The figure for `COc1ccc(C(=O)CSc2nnc(Cn3cnc4ccccc43)o2)cc1` is inactive: > 76.9 µM. For the compound `O=C(CCn1nc(-c2ccccc2)c2ccccc2c1=O)N1CCN(c2ccccc2)CC1`, the Potency was inactive: > 76.9 µM. In the case of `Cc1ccc(S(=O)(=O)N2CC(O)CC2C(=O)Nc2ccc3c(c2)CCC3)cc1` (stereo unspecified), the Potency is inactive: > 76.9 µM. The figure for `COc1ccc(C)cc1NC(=O)CN1CCN(S(=O)(=O)c2ccc(F)cc2)CC1` is inactive: > 76.9 µM; for `C=CCOc1c(Cl)cc(C2NC(=O)NC(C)=C2C(=O)OC)cc1Cl` (stereo unspecified) it is inactive: > 76.9 µM. `CCSc1nc(=S)n(CC)c(C)c1C(C)=O`: the Potency is inactive: > 76.9 µM. The entry for `CCOC(=O)COc1cc2c3c(c(=O)oc2cc1C)CCCC3` is “inactive”; for `CN1CCC(OC(=O)COc2ccc(C(C)(C)C)cc2)CC1` it is inactive: > 76.9 µM; for `COc1ccc(-c2nnc(NC(=O)c3cc(C)on3)s2)cc1` it is inactive: > 76.9 µM.

With `Cc1c(NC(=O)CC(=O)Nc2c(C)n(C)n(-c3ccccc3)c2=O)c(=O)n(-c2ccccc2)n1C`, the Potency is inactive: > 76.9 µM.

On to `COc1ccc(NC(=O)CCCCn2c(=O)[nH]c3ccccc3c2=O)cc1`, for which the Potency was inactive: > 76.9 µM. For `COc1ccc(CN2CCN(C(=O)C3CC(=O)N(C4CCCCCC4)C3)CC2)c(OC)c1OC` (stereo unspecified) the value was inactive: > 76.9 µM. For `COc1cccc(-c2cc(C(F)(F)F)nc(N3CCCCC3)n2)c1` the value was inactive: > 76.9 µM; for `CCCC(=O)Nc1cc(C)c(NC(=O)C23CC4CC(CC(C4)C2)C3)cn1`, inactive: > 76.9 µM. The figure for `CCC1Oc2ccccc2N(CC(=O)NCCC2=CCCCC2)C1=O` (stereo unspecified) is inactive: > 76.9 µM; for `CC1(C)CC(=O)CC(C)(C)N1OC(=O)c1ccccn1` it is inactive: > 76.9 µM; for `O=C(c1ccco1)N1CCN(CC(=O)N(C2CCCCC2)C2CCS(=O)(=O)C2)CC1` (stereo unspecified) it is inactive: > 76.9 µM. Regarding `COc1ccccc1-c1nnc(SCC(=O)Nc2ccccc2)o1`, the Potency is inactive: > 76.9 µM.

Take `CCCCn1nnnc1NCc1cccs1`: the Potency is inactive: > 76.9 µM.

As for `COc1cc(C2N=C(c3ccccc3)NO2)cc(Br)c1O` (stereo unspecified), the Potency was inactive: > 76.9 µM. The figure for `Cc1nn(-c2ccc(F)cc2)c(C)c1NS(=O)(=O)c1ccc(Cl)cc1` is inactive: > 76.9 µM; for `CCOc1ccccc1NC(=O)CSc1nnc(CNC(=O)COc2ccc(Cl)cc2)o1` it is inactive: > 76.9 µM. `CCOC(=O)c1cnc(SCC)[nH]c1=O`: the Potency is inactive: > 76.9 µM. For `CC(C)c1nc2sc3c(SCC(=O)NCc4ccco4)ncnc3c2c2c1CCC2` the value was inactive: > 76.9 µM. Turning to `CCOC(=O)N1CCC(NC(=O)C2CCCN2C(=O)OCc2ccccc2)CC1` (stereo unspecified), the Potency entry was “inactive”. The figure for `O=c1cc(-c2ccccc2)nc2nc(-c3ccccc3)[nH]n12` is inactive: > 76.9 µM; for `O=C(c1cc(-c2ccco2)on1)N1CCCc2ccccc21` it is “inactive”.

Take `FC(F)(F)c1cc(-c2ccco2)nc(-n2nc(C(F)(F)F)cc2C2CC2)n1`: the Potency is inactive: > 76.9 µM. The figure for `O=C(c1ccc2c(c1)OCO2)N1CCNc2ccccc2C1` is inactive: > 76.9 µM. For `Cc1ccccc1NS(=O)(=O)c1ccc(C2CNC(=O)C2)cc1` (stereo unspecified) the value was inactive: > 76.9 µM. The figure for `CCOC(=O)N1CCC(NCCNC(=O)c2cccs2)CC1` is inactive: > 76.9 µM. Turning to `O=c1n(Cc2ccc(Cl)cc2)c2sc3c(c2c2ncnn12)CCCC3`, the Potency was inactive: > 76.9 µM. The figure for `COc1ccc(C(=O)N2CCCC(c3nc(-c4ccc(OC)c(OC)c4)no3)C2)c(OC)c1` (stereo unspecified) is inactive: > 76.9 µM. The figure for `COCCCNC(=O)c1cc(OC)c(OC)c(OC)c1` is inactive: > 76.9 µM; for `CC(C(=O)N1c2ccc(F)cc2CCC1C)N1C(=O)c2ccccc2C1=O` (stereo unspecified) it is inactive: > 76.9 µM; for `CCOC(=O)COc1ccc(Cl)cc1C1NC(=O)NC(C)=C1C(C)=O` (stereo unspecified) it is inactive: > 76.9 µM. The figure for `CSc1nsc(SCCN2C(=O)c3ccccc3C2=O)n1` is inactive: > 76.9 µM.

As for `O=C(N1CCOCC1)N1CCC(n2nnc3cc(F)ccc32)CC1`, the Potency was inactive: > 76.9 µM. For `Cc1occc1C(=O)Nc1nccs1` the value was inactive: > 76.9 µM; for `CCOC(=O)C1CCCN(c2cc(C)nc3cc(-c4ccc(F)cc4)nn23)C1` (stereo unspecified), inactive: > 76.9 µM; for `COc1ccc2[nH]c(=O)c(CN(Cc3cccs3)S(=O)(=O)c3cccc4nsnc34)cc2c1`, “inactive”. The figure for `CC(=O)Nc1ccc(NC(=O)Oc2ccccc2)cc1` is inactive: > 76.9 µM. The figure for `Cc1ccc(NC(=O)CN(C)C(=O)CCCN2C(=O)c3ccccc3C2=O)cc1` is inactive: > 76.9 µM.
